This is an account of results in ChEMBL document CHEMBL4888484, “Replenishing the malaria drug discovery pipeline: Screening and hit evaluation of the MMV Hit Generation Library 1 (HGL1) against asexual blood stage Plasmodium falciparum ,using a nano luciferase reporter read-out” (2022).

Structures are written as SMILES. In all, about 150,000 compounds went through this assay and about 540 (0.36%) showed an effect of 50% or more. Some of the results follow.

In this experiment the test system is Plasmodium falciparum. Nature of the experiment: Primary screen in NF54 nanoGlo assay, in single point, at 2uM, 72h; a lower Z score goes with more inhibition. Conditions: timepoint 72 hour. In kind it is functional, Erythrocyte.
In the case of `CCn1cc(Br)c(C(=O)NCCc2cn(C)cn2)n1`, the “% Inhibition” value is reported as -7% and the Z score is given as 1.22.
As to `Fc1cccc(CNCc2cc3cc4c(cc3nc2N2CCCC2)OCO4)c1`, the “% Inhibition” value is recorded as -10% and the Z score turned out to be 1.29.
Regarding `Cc1csc([C@@H]2CN(C(=O)c3c(Cl)c4ccccc4n3C)CCO2)n1`, the “% Inhibition” value was determined as 0% and the Z score is listed as 0.03.
With `CCN1C(=O)[C@@H]2CC3(CCN(C(=O)c4c[nH]c5ccccc45)CC3)CN2C1=O`, the “% Inhibition” value was -4% and the Z score is 0.49.
Consider `O=C(c1cc(S(=O)(=O)N2CCCC2=O)c(Cl)cc1Cl)N1CCCCC1`, for which the “% Inhibition” value amounted to 1% and the Z score is on record as -0.21.
Take `CC1(C)O[C@H]2[C@@H](O1)[C@@H](C(=O)NCCC(=O)Nc1nccs1)O[C@@H]1OC(C)(C)O[C@@H]12`: the “% Inhibition” value is -16% and the Z score stood at 2.43.
With `CCCCc1nc(CN(CCc2ccc(OC)c(OC)c2)Cc2ccncc2)c[nH]1`, the “% Inhibition” value was 15% and the Z score is given as -2.67.
With `C[C@]1(CNC(=O)N2CCC2)CCOC2(CCC2)C1`, the “% Inhibition” value worked out at 0% and the Z score was 0.07.
On to `COc1ccc(CNC(=O)c2c(O)c3cccc4c3n(c2=O)CC4)cc1`, for which the “% Inhibition” value was -14% and the Z score stood at 1.22.
On the same counts, the results for `Cc1cc(C(=O)N2CCN(CC3CCC3)CC2)c2cccc(Cl)c2n1` are -4% and 0.81.
Take `O=C(CCN1CCCCC1=O)NC[C@H]1CC[C@H](CO)CC1`: the “% Inhibition” value is recorded as -20% and the Z score turned out to be 2.19.
For the compound `Cc1cccc(C)c1Oc1ncccc1CNC(=O)[C@H]1CC(=O)N(C(C)C)C1`, the “% Inhibition” value is -14% and the Z score was determined as 1.33.
Regarding `CN(CC1(CO)CCCC1)S(=O)(=O)c1cn[nH]c1`, the “% Inhibition” value was -6% and the Z score is listed as 1.27.
Regarding `Cc1noc(C)c1CCC(=O)NC1C2CCCOC2C1(C)C` (stereo not drawn), the “% Inhibition” value is listed as -10% and the Z score is recorded as 1.44.
For `O=C(O)c1ccc(C2Nc3ccc(Cl)cc3C3OCCCC23)cc1` (stereo not drawn), the “% Inhibition” value was -8% and the Z score came out at 0.97.
In the case of `COC(=O)c1cn(-c2cccc(C(F)(F)F)c2)cc2c(O)nnc1-2`, the “% Inhibition” value is reported as -15% and the Z score worked out at 2.5.
In the case of `COc1ncccc1CCNC(=O)[C@@]12C[C@@H]1COC21CCC1`, the “% Inhibition” value was -8% and the Z score was determined as 0.81.
`CCCC1(C(=O)O)CCN([C@H]2CCCOC2)CC1`: the “% Inhibition” value was -4% and the Z score was 0.46.
`C[C@@H](C1CCN(C)CC1)N(C)C(=O)c1ccc(CNC(=O)OC(C)(C)C)o1`: the “% Inhibition” value is on record as -9% and the Z score came out at 0.98.
For the compound `N#CCN(C1CC1)S(=O)(=O)CC(=O)c1ccccc1`, the “% Inhibition” value was found to be 7% and the Z score is on record as -1.19.
As to `C[C@H](NC(=O)c1nc(-c2ccccc2)nn1C)c1ncon1`, the “% Inhibition” value came to 1% and the Z score was -0.1.
Consider `COc1ccc(C(=O)N2CC(C(=O)NCCc3ccccc3)CC(c3ccccc3)C2)cc1` (stereo not drawn), for which the “% Inhibition” value was -13% and the Z score turned out to be 1.26.
On to `COc1cccc(-c2nn([C@@H](C)C(=O)Nc3cccc(Cl)c3C)c(=O)c3noc(C)c23)c1`, for which the “% Inhibition” value is on record as -9% and the Z score was found to be 0.9.
The corresponding values for `COc1cccc([C@@H](O)CN(Cc2ccccc2)S(=O)(=O)Cc2ccccc2)c1` are -2% and 0.17.
On to `CC(C)(C)n1nnc(CNC(=O)Nc2cccc3c2OCCC3)n1`, for which the “% Inhibition” value is 1% and the Z score is -0.09.
Take `COCCN1CCCn2nc([C@H]3CCCN(Cc4ccc(C)o4)C3)cc2C1=O`: the “% Inhibition” value is given as -8% and the Z score amounted to 1.55.
With `Cc1cccc(NC(=O)N2CCC(N3CCC[C@H](C(=O)N4CCCC4)C3)CC2)c1`, the “% Inhibition” value was found to be 12% and the Z score is -1.59.
Consider `Cc1cccc(NS(=O)(=O)c2cc(-c3nc(-c4ccc(Cl)cc4)no3)cs2)c1C`, for which the “% Inhibition” value is given as -5% and the Z score is given as 0.79.
`CNc1nc(CN2CCN(c3nccc(N)n3)C[C@@H](O)C2)cs1`: the “% Inhibition” value is recorded as -5% and the Z score was 0.99.
On the same counts, the results for `O=C(Cc1cccnc1)N[C@H]1CCOC2(CCOCC2)C1` are -5% and 0.99.
On the same counts, the results for `CCOCCC(=O)NC(c1ccc2c(c1)CCO2)[C@H]1C[C@@H](O)C1` (stereo partly drawn) are 10% and -1.32.
On the same counts, the results for `NS(=O)(=O)c1cccc(-n2ccnc2-c2ccc3cccc(F)c3n2)c1` are -5% and 0.69.
Regarding `CCN1C(=O)COc2ccc(NC(=O)NCc3nnc(C)o3)cc21`, the “% Inhibition” value is on record as -9% and the Z score was found to be 0.92.
As for `Cc1n[nH]cc1CN(C)C(=O)CCc1cn[nH]c1`, the “% Inhibition” value was -11% and the Z score was 2.09.
For `Cn1ncc(Cl)c1C=Cc1ccncn1`, the “% Inhibition” value was -3% and the Z score is recorded as 0.32.
In the case of `CC(C)c1ccc(NC(=O)c2nc(CCc3ccccc3)n(-c3ccccc3)n2)cc1`, the “% Inhibition” value is given as -19% and the Z score is reported as 3.67.
As for `Cc1cccnc1CN1C[C@@](C)(c2ccccc2)CCC1=O`, the “% Inhibition” value is 8% and the Z score is -1.19.
On the same counts, the results for `CC(=O)N1CCN(Cc2cc(C#N)n(C)c2)C[C@H](O)C1` are 5% and -0.97.
The corresponding values for `O=C1NCCCC[C@@H]1NS(=O)(=O)NCc1ccccc1` are 5% and -0.64.
The corresponding values for `CC(CNC(=O)N1CCCC(CO)C1)Oc1ccc(Cl)cc1` (stereo not drawn) are -4% and 0.38.
Take `CS(=O)(=O)CCn1cnc(-c2ccccc2)c1-c1cnc2ccccc2c1`: the “% Inhibition” value is given as 1% and the Z score is listed as -0.27.
Regarding `Cc1ccc(S(=O)(=O)N[C@@H](CC(=O)NC2CCCC2)c2ccco2)cc1`, the “% Inhibition” value amounted to 19% and the Z score is -2.23.
As for `Cc1ccc(CCN2C(=O)CC[C@@H]3CN(C(=O)c4ccon4)CC[C@@H]32)o1`, the “% Inhibition” value is given as -15% and the Z score came to 1.3.
On to `CCOC(=O)N1CCC(NCc2cnc(C(C)(C)C)nc2)CC1`, for which the “% Inhibition” value is reported as -10% and the Z score came out at 0.98.
Consider `O=C(Cn1nnc(C2CC2)n1)N1CCCc2ccccc21`, for which the “% Inhibition” value is given as -4% and the Z score worked out at 0.74.
The corresponding values for `Cc1cc(N2CCN(CCCO)CC2)n2nc(C)cc2n1` are -9% and 1.98.
For the compound `CC(C)(C)C(=O)N1CC(Nc2ncccn2)C1`, the “% Inhibition” value is listed as -6% and the Z score came to 1.02.
Consider `COc1ccccc1-c1cc(C(=O)NCc2cccc(C(F)(F)F)c2)nc2cc(-c3ccccc3)nn12`, for which the “% Inhibition” value was -22% and the Z score is given as 2.41.
Take `Cc1nccc(O[C@H]2CCCN(C(=O)c3ccccc3Br)C2)n1`: the “% Inhibition” value is reported as 2% and the Z score is on record as -0.26.
Turning to `C[C@H](C(=O)O)C1CCC(NC(=O)OC(C)(C)C)CC1` (stereo partly drawn), the “% Inhibition” value was determined as 2% and the Z score is -0.33.
Turning to `CCCCS(=O)(=O)Nc1ccc(C)c(N2CC[C@H](N(C)C)C2)c1`, the “% Inhibition” value was 6% and the Z score is reported as -0.69.
Regarding `C[C@H]1C(=O)NCCN1C(=O)CN1C(=O)c2ccccc2C1=O`, the “% Inhibition” value was -2% and the Z score was 0.24.
The corresponding values for `CNC(=O)CN1CCN(C(=O)[C@@H]2CCCC[C@@H]2c2ccccc2)CC1` are 1% and -0.08.
`CCN(Cc1ccco1)Cc1c(C)noc1C`: the “% Inhibition” value was -18% and the Z score is 2.57.
Take `Cc1ccc(C(=O)O[C@@H](C)c2nc3ccccc3n2C)cn1`: the “% Inhibition” value was -6% and the Z score was 0.69.
In the case of `Cc1ccsc1-c1c(-c2ccccc2)ncn1CCN1CCNC1=O`, the “% Inhibition” value was determined as 0% and the Z score stood at 0.
Regarding `Cn1c(C(=O)NCCCN2CCCCC2)c(N2CCCC2=O)c2cc(F)ccc21`, the “% Inhibition” value was 5% and the Z score is -0.77.
With `Cn1nc(-c2cnccn2)cc1CNC(=O)c1ccsc1`, the “% Inhibition” value worked out at 12% and the Z score is -1.49.
For `CC(C)(C(=O)NC(CO)C(C)(C)C)C1=NC(C(C)(C)C)CO1` (stereo not drawn), the “% Inhibition” value came out at 3% and the Z score is -0.63.
For the compound `Cc1cccc([C@@H](C)C(=O)NCc2ccc(C(=O)O)c(C3CC3)n2)c1`, the “% Inhibition” value was determined as 11% and the Z score was -1.56.
The corresponding values for `C[C@@H](CNC(=O)Nc1nccs1)S(N)(=O)=O` are -1% and 0.11.
As for `O=C(c1cn(CCN2CCOCC2)nn1)N1CCc2sccc2C1`, the “% Inhibition” value is -4% and the Z score came out at 0.57.
Take `CC(C)n1ncc2cc(S(=O)(=O)N[C@H]3CC(=O)N(C)C3=O)ccc21`: the “% Inhibition” value is recorded as -19% and the Z score is reported as 1.85.
As to `Cc1ccc(NC(=O)CC(=O)N(C)CCN2CCCCCC2)c(C)c1`, the “% Inhibition” value is reported as 2% and the Z score is on record as -0.23.
For `Cc1cc(Cn2ccc(-c3cccc(-c4nccs4)c3)n2)no1`, the “% Inhibition” value is listed as -7% and the Z score is on record as 1.
`Cc1cnc(C)c(N2CCCN(c3cncc(F)c3)CC2)n1`: the “% Inhibition” value turned out to be 29% and the Z score is reported as -4.25.
The corresponding values for `CN1CCc2nc(C=Cc3cccc(Cl)c3Cl)[nH]c(=O)c2C1` are 13% and -1.2.
On the same counts, the results for `Cc1c(NCc2cccnc2)cccc1C(=O)N1CCN2CCNC(=O)[C@@H]2C1` are -14% and 1.4.
For `CC1(C)CCc2nc(CN(CCC#N)CCC#N)sc2C1`, the “% Inhibition” value was found to be 5% and the Z score is -0.62.
Turning to `O=C(NCc1ccc2ccccc2n1)c1cc(CN2CCC(O)CC2)on1`, the “% Inhibition” value was -8% and the Z score is given as 1.5.
As to `CC[C@@H](C(=O)NCc1ccncc1C)n1cccn1`, the “% Inhibition” value is listed as -1% and the Z score is given as 0.09.
For `Cc1noc(C)c1C(=O)N1CCc2ccccc2C1`, the “% Inhibition” value is given as 14% and the Z score was -1.27.
`CN1CCN(C(=O)CCN2CCCc3ccccc3C2)CC1`: the “% Inhibition” value worked out at 0% and the Z score is 0.01.
Consider `Cc1ccc(C)c(-c2n[nH]cc2CN2CC[C@@H](O)C[C@H]2C(=O)O)c1`, for which the “% Inhibition” value was 1% and the Z score is on record as -0.15.
On the same counts, the results for `COc1cc(C(=O)O[C@@H](C)c2ccc(-n3cccn3)cc2)on1` are -16% and 1.84.
With `Nc1c(Oc2cccc3cccnc23)ncnc1N1CCCCC1`, the “% Inhibition” value was 6% and the Z score is given as -0.69.
The corresponding values for `O=C(C[C@@H](c1ccc(Cl)c(Cl)c1)N1CCOCC1)N1CCC2(CCC2)C1` are -9% and 1.26.
In the case of `CC(C)N1CCCN(S(=O)(=O)c2ccc(-c3cc(C(F)(F)F)[nH]n3)o2)CC1`, the “% Inhibition” value is recorded as -9% and the Z score came to 1.39.
For `Cc1ncc(NC(=O)NC2(c3c(F)cccc3F)CCC2)c(C2CC2)n1`, the “% Inhibition” value was 16% and the Z score is -2.25.
The corresponding values for `CNC[C@H]1CCN(S(=O)(=O)CCCC(F)(F)F)C1` are -30% and 3.53.
As to `O=C(CN(Cc1nccn1C(F)F)C1CC1)Nc1cc(F)ccc1F`, the “% Inhibition” value is -2% and the Z score came out at 0.28.
As for `O=C(NCCOCCn1cccn1)c1cncc(F)c1`, the “% Inhibition” value was -14% and the Z score was found to be 2.09.
For `O=C(O)C1CCC(=O)N(Cc2ccccc2)C1c1ccccc1` (stereo not drawn), the “% Inhibition” value is reported as -9% and the Z score was 1.72.
Regarding `CC[C@H]1C(=O)NCCCN1C(=O)c1cc(C2CC2)nc2onc(C)c12`, the “% Inhibition” value amounted to 5% and the Z score is listed as -0.67.
